# According to PubChem BioAssay (Tox21):
# The source made the active and inactive calls. Unless noted, the call rests on the fitted dose curve; in most records, active means well fitted curve in the direction sought with a large enough effect in the repeat runs; inconclusive means weak or mixed curves; inactive means no such curve, though single readings can be large; an effect the other way counts as inactive or inconclusive.
# Experiments:
# [1] = molecular target: Aryl hydrocarbon receptor (Homo sapiens) (UniProt P35869); experiment: qHTS assay to identify small molecule that activate the aryl hydrocarbon receptor (AhR) signaling pathway (AID 743085); further: nearly all actives have a fitted effect of over 15% in size; further: potency means the concentration at half of the fitted maximal effect;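 on activation: HG2L7.5c1 human HepG2 liver cells with stably integrated DRE-driven firefly reporter; on the % scale 0 is the no-effect control and ±100 the full control effect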
# UniProt P35869, sequence (P35869 whole entry, looked up): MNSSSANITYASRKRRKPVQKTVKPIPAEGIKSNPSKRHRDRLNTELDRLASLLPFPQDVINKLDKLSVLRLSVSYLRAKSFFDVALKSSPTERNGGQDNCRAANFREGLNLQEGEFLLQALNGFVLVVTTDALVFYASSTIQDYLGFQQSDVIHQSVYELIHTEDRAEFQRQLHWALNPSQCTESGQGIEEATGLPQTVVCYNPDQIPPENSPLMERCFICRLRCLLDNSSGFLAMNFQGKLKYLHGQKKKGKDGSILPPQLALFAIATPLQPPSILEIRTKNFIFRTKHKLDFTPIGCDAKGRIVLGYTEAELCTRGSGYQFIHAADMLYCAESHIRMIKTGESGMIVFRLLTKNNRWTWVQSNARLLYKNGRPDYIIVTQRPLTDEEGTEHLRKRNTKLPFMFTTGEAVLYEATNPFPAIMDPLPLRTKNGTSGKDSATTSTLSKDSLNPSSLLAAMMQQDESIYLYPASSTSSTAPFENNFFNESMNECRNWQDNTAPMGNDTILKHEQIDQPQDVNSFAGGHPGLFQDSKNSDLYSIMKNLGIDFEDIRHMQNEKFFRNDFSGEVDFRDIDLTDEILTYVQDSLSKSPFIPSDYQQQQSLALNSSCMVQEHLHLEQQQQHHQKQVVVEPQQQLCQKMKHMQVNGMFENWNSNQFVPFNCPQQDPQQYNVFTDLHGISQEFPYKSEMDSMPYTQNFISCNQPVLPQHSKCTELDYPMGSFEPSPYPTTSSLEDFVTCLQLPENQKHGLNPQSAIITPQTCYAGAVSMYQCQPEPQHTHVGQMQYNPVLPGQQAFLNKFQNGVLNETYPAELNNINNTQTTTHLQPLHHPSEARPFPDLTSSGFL
# Method in brief: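 Cell line HG2L7.5c1 (human hepatoma, 20× DRE-luc). Plated, 5 h 37C, compound/DMSO added, 24 h 37C. CellTiter-Fluor 30 min 37C → fluorescence; then ONE-Glo 30 min RT → luminescence.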
# [2] = qHTS assay for identifying genotoxic compounds that show differential cytotoxicity against isogenic chicken DT40 cell lines with known DNA damage response pathways - Rev3 mutant cell line (AID 743014); settings: chicken DT40 Rev3-/- viability, CellTiter-Glo, 40 h; activity, negative = cytotoxicity: at 68.4 µM (top of the series); further: nearly all actives have a fitted effect of over 55% in size; further: potency means the concentration at half of the fitted maximal effect; on activity, negative = cytotoxicity: on the % scale 0 is the no-effect control and ±100 the full control effect
# [3] = qHTS assay to identify small molecule antagonists of the thyroid receptor (TR) signaling pathway - cell viability counter screen (AID 743064); settings: GH3.TRE-Luc viability, CellTiter-Fluor, 24 h; activity change, negative = cytotoxic: at 70.3 µM (top of the series) unless noted; further: nearly all actives have a fitted effect of over 50% in size; further: potency means the concentration at half of the fitted maximal effect
# Method in brief: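 Fluorescence from CellTiter-Fluor, added after 23.5 h exposure at 37 °C, reported viability of GH3.TRE-Luc cells co-treated with compound and 1 nM T3. Measured in the same wells as the luciferase TR readout.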
# [4] = molecular target: Glucocorticoid receptor (Homo sapiens) (UniProt P04150); experiment: qHTS assay to identify small molecule antagonists of the glucocorticoid receptor (GR) signaling pathway (AID 720692; active means well fitted inhibition curve with a large enough effect in the signal ratio in the repeat runs, not every such curve was filed as active; inconclusive means weak or mixed curves, or effect the other way; inactive means no such curve, though single readings can be large or run the other way; the % refers to the signal ratio; further: potency means the concentration at half of the fitted maximal effect); settings: GR-bla HeLa, beta-lactamase FRET ratio, dexamethasone-stimulated, 18 h
# UniProt P04150, sequence (P04150 whole entry, looked up): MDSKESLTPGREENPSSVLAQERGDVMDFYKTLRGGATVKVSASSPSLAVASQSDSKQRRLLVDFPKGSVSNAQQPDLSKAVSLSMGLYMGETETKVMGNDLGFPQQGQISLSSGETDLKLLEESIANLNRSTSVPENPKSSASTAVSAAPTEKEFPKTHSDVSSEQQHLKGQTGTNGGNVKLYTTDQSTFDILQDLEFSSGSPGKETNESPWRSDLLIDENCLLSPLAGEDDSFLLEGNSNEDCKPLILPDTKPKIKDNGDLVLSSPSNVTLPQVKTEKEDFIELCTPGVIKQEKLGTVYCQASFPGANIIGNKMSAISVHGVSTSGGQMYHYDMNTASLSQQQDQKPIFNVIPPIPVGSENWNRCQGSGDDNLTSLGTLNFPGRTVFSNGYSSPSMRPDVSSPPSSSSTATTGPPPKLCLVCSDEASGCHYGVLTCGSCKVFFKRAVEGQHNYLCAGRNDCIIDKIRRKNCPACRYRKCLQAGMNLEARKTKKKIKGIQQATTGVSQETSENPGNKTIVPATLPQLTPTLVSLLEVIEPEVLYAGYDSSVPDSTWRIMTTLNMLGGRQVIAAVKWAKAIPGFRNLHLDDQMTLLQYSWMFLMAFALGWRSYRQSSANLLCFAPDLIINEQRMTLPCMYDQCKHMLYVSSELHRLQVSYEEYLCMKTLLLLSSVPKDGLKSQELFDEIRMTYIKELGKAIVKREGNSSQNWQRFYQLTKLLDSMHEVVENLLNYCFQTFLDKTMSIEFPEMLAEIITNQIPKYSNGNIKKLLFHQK
# Method in brief: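 GR-bla HeLa cells (beta-lactamase reporter under glucocorticoid response element) were pre-plated 4 h at 37 C, treated with compounds plus 5 nM dexamethasone (final) for 18 h, then read by LiveBLAzer B/G FRET fluorescence after 2 h.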
# [5] = qHTS assay to identify small molecule antagonists of the glucocorticoid receptor (GR) signaling pathway - cell viability counter screen (AID 720693); settings: GR-bla HeLa viability, CellTiter-Glo luminescence, 18 h, with 5 nM dexamethasone present; viability change, negative = cytotoxic: at 58.5 µM (top of the series) unless noted; further: potency means the concentration at half of the fitted maximal effect; nearly all actives have a fitted effect of over 55% in size
# [6] = qHTS assay for identifying genotoxic compounds that show differential cytotoxicity against isogenic chicken DT40 cell lines with known DNA damage response pathways - wild type cell line (AID 743012); settings: DT40 wild type chicken cells viability, CellTiter-Glo, 40 h; activity change, negative = cytotoxicity: at 68.4 µM (top of the series) unless noted; further: nearly all actives have a fitted effect of over 60% in size; further: potency means the concentration at half of the fitted maximal effect
# Method in brief: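 Parental DNA repair-proficient DT40 cells, 300 per well, were pre-incubated ~0.5 h at 37 C/5% CO2, pin-dosed with compounds in DMSO, then incubated 40 h. Viability was read as CellTiter-Glo luminescence after 30 min at room temperature.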
# [7] = molecular target: Estrogen receptor (Homo sapiens) (UniProt P03372); experiment: qHTS assay to identify small molecule antagonists of the estrogen receptor alpha (ER-alpha) signaling pathway (AID 743069; active means well fitted curve in the direction sought with a large enough effect in the signal ratio in the repeat runs, not every such curve was filed as active; inconclusive means weak or mixed curves, or effect the other way; inactive means no such curve, though single readings can be large or run the other way; the % refers to the signal ratio; further: potency means the concentration at half of the fitted maximal effect); settings: HEK293 ER-alpha-UAS-bla, beta-lactamase ratio, antagonist mode; activity, negative = inhibition: at 69.4 µM (top of the series) unless noted
# UniProt P03372, sequence (P03372 whole entry, looked up): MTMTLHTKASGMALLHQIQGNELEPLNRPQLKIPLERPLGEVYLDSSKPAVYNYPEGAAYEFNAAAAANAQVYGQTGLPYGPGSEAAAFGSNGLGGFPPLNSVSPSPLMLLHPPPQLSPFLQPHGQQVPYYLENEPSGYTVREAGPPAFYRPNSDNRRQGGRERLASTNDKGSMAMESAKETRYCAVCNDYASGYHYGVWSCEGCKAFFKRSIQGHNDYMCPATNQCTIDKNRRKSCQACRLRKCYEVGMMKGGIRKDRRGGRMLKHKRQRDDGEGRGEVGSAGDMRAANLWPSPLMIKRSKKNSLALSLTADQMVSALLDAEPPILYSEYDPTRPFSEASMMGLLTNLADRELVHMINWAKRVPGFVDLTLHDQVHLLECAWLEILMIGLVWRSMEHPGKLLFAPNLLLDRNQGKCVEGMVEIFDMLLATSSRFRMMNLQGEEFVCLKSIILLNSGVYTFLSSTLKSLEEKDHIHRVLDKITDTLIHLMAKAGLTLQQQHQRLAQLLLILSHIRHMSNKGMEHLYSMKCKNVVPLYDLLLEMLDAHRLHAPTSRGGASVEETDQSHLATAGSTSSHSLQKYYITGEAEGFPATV
# Method in brief: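 ER-alpha-UAS-bla GripTite HEK293 line; 2% charcoal-stripped FBS overnight; plated, 4 hr 37C/5% CO2; cpd in DMSO + 17beta-estradiol, 18 hr 37C; LiveBLAzer B/G FRET substrate 2 hr RT; fluorescence intensity.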
# [8] = qHTS assay to identify small molecule antagonists of the estrogen receptor alpha (ER-alpha) signaling pathway - cell viability counter screen (AID 743074; calls by dose curve;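 further: HEK293 cells carrying ER-alpha-UAS-bla reporter stimulated with 17beta-estradiol; nearly all actives have a fitted effect of over 45% in size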; further: potency means the concentration at half of the fitted maximal effect)
# [9] = qHTS assay to identify small molecule antagonists of the estrogen receptor alpha (ER-alpha) signaling pathway using the BG1 cell line - cell viability counter screen (AID 743081); settings: BG1Luc4E2 viability, CellTiter-Fluor, 22 h; activity change, negative = cytotoxicity: at 70.3 µM (top of the series);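 further: compound given together with 17beta-estradiol as the ER stimulus; potency means the concentration at half of the fitted maximal effect; nearly all actives have a fitted effect of over 45% in size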
# [10] = molecular target: Peroxisome proliferator-activated receptor delta (Homo sapiens) (UniProt Q03181); experiment: qHTS assay to identify small molecule antagonists of the peroxisome proliferator-activated receptor delta (PPARd) signaling pathway (AID 743215; active means well fitted inhibition curve with a large enough effect in the signal ratio in the repeat runs, not every such curve was filed as active; inconclusive means weak or mixed curves, or effect the other way; inactive means no such curve, though single readings can be large or run the other way; the % refers to the signal ratio;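 further: cells stimulated with agonist L165041 at 300 nM final during compound exposure; on the % scale 0 is the no-effect control and ±100 the full control effect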); settings: HEK293H PPARd-UAS-bla, beta-lactamase FRET ratio, antagonist, 17 h; ratio activity, negative = inhibition: at 62 µM (top of the series) unless noted
# UniProt Q03181, sequence (Q03181 whole entry, looked up): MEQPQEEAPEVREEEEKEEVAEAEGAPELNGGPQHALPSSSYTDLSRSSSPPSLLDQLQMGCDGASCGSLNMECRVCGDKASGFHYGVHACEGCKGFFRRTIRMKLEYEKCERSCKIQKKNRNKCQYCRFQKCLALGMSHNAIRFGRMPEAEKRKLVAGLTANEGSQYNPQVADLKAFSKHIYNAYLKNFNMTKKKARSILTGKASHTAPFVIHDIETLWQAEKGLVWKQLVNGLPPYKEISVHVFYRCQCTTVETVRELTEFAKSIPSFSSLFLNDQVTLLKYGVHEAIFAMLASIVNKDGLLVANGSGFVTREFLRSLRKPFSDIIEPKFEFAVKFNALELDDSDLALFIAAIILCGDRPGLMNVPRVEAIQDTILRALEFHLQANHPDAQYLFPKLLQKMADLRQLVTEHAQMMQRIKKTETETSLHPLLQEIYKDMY
# Method in brief: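 PPARd UAS-bla HEK293H cells were pre-incubated 5 h at 37 C, then given test compounds in DMSO plus agonist L165041 (300 nM final). After 17 h at 37 C, beta-lactamase FRET substrate was added; fluorescence read after 2 h at room temperature.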
# [11] = qHTS assay for identifying genotoxic compounds that show differential cytotoxicity against isogenic chicken DT40 cell lines with known DNA damage response pathways - Rad54/Ku70 mutant cell line (AID 743015); settings: DT40 Rad54/Ku70 mutant viability, CellTiter-Glo, 40 h; activity change, negative = cytotoxicity: at 66.8 µM (top of the series); further: potency means the concentration at half of the fitted maximal effect; nearly all actives have a fitted effect of over 60% in size
# [12] = qHTS assay to identify small molecule antagonists of the androgen receptor (AR) signaling pathway - cell viability counter screen (AID 743033; further: on the % scale 0 is the no-effect control and ±100 the full control effect; nearly all actives have a fitted effect of over 45% in size)
# [13] = molecular target: Androgen receptor (Homo sapiens) (UniProt P10275); experiment: qHTS assay to identify small molecule antagonists of the androgen receptor (AR) signaling pathway (AID 743035; active means well fitted inhibition curve with a large enough effect in the signal ratio in the repeat runs, not every such curve was filed as active; inconclusive means weak or mixed curves, or effect the other way; inactive means no such curve, though single readings can be large or run the other way; the % refers to the signal ratio; further: on the % scale 0 is the no-effect control and ±100 the full control effect); settings: HEK293 AR-UAS-bla, R1881-stimulated, beta-lactamase FRET, 16 h; activity change, negative = inhibition: at 58.5 µM (top of the series) unless noted
# UniProt P10275, sequence (P10275 whole entry, looked up): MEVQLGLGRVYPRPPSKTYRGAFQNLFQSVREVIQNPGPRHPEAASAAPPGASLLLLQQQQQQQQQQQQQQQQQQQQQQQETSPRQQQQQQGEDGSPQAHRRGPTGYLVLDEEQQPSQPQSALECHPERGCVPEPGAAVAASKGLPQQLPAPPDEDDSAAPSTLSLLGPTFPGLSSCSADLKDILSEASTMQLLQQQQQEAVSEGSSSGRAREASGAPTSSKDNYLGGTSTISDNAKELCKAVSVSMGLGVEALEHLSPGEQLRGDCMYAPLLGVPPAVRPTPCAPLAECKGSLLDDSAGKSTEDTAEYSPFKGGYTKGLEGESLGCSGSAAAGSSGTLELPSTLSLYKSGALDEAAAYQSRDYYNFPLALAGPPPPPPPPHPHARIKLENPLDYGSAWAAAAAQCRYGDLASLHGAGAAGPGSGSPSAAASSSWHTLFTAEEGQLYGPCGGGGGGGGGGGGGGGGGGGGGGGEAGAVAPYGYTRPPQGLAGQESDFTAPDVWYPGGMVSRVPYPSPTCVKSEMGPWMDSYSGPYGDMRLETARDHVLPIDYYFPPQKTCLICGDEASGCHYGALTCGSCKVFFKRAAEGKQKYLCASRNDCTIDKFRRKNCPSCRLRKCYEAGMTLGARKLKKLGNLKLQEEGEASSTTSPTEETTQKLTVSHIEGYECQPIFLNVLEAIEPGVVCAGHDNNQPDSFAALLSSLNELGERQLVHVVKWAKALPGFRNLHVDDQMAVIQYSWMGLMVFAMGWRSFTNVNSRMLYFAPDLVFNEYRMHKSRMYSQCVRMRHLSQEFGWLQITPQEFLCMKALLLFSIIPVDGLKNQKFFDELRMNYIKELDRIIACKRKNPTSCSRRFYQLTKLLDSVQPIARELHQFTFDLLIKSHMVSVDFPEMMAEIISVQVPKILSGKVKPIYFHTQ
# Method in brief: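 HEK293 cells stably carrying a UAS-driven beta-lactamase reporter (AR-UAS-bla GripTite) were plated for 4 h at 37C, then given compound and the agonist R1881 and incubated 16 h. Reporter activity was read by LiveBLAzer B/G FRET fluorescence after 2 h at room temperature.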
# [14] = molecular target: Androgen receptor (Homo sapiens) (UniProt P10275); experiment: qHTS assay to identify small molecule agonists of the androgen receptor (AR) signaling pathway (AID 743036; active means well fitted activation curve with a large enough effect in the signal ratio in the repeat runs, with a control signal flat, not every such curve was filed as active; inconclusive means weak or mixed curves, or effect the other way; inactive means no such curve, though single readings can be large or run the other way; the % refers to the signal ratio; further: potency means the concentration at half of the fitted maximal effect); settings: HEK293 AR-UAS-bla GripTite, beta-lactamase FRET ratio, 16 h; activation: at 62.4 µM (top of the series) unless noted
# Method in brief: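 Fluorescence from a beta-lactamase FRET substrate served as read-out in AR-UAS-bla GripTite HEK293 cells. Cells were treated with DMSO-dissolved compounds for 16 h at 37C, then with LiveBLAzer B/G substrate for 2 h at room temperature.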
# [15] = qHTS assay to identify small molecule antagonists of the thyroid receptor (TR) signaling pathway (AID 743065); further: nearly all actives have a fitted effect of over 55% in size; further: potency means the concentration at half of the fitted maximal effect
# Method in brief: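 Antagonism measured as loss of luciferase signal in GH3 cells stably carrying a TRE-luciferase reporter, co-treated with compound and T3 (1 nM final) for 23.5 h at 37 C. Viability was read in the same well by CellTiter-Fluor.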
# [16] = molecular target: Estrogen receptor (Homo sapiens) (UniProt P03372); experiment: qHTS assay to identify small molecule agonists of the estrogen receptor alpha (ER-alpha) signaling pathway (AID 743075; calls by dose curve; further: potency means the concentration at half of the fitted maximal effect); settings: HEK293 ER-alpha-UAS-bla, beta-lactamase FRET ratio, 18 h; activation: at 70.1 µM (top of the series) unless noted
# [17] = molecular target: Estrogen receptor (Homo sapiens) (UniProt P03372); experiment: qHTS assay to identify small molecule agonists of the estrogen receptor alpha (ER-alpha) signaling pathway using the BG1 cell line (AID 743079); settings: BG1Luc4E2 cells, ERE-luciferase agonist, 22 h; activation: at 70.3 µM (top of the series) unless noted; further: potency means the concentration at half of the fitted maximal effect; nearly all actives have a fitted effect of over 20% in size
# [18] = activity change, negative = inhibition: at 58.5 µM (top of the series) unless noted
# Tags describe the fitted curve by direction and shape or compound fluorescence and quenching.
compound,measurement,setting,value
Cc1ccc([N+](=O)[O-])c(C)c1,Potency,[1],inactive
CNC(C)Cc1ccccc1 (centres undefined),Potency,[2],inactive
same,Potency,[3],"inconclusive: 24.3 µM [rising, single point]"
COc1ccc2c3c1O[C@H]1[C@@H](O)C=C[C@H]4[C@@H](C2)NCC[C@@]341,"activity change, negative = inhibition",[4]; [18],inconclusive: 19.8% [at 78.9 µM]
same,"activity change, negative = inhibition",[4]; at 58.5 µM (top of the series),inactive: -0.715%
same,Potency,[5],"inconclusive: 0.952 µM [rising, single point]"
same,Potency,[6],inactive
same,Potency,[3],inactive
same,Potency,[7],inactive
same,Potency,[8],inactive
same,Potency,[9],"inconclusive: 27.9 µM [cytotoxic, single point]"
Nc1ccc2c3c(cccc13)-c1ccccc1-2,Potency,[1],active: 21.9 µM
C[C@]12C=CC(=O)C=C1CC[C@@H]1[C@@H]2CC[C@]2(C)OC(=O)CC[C@@H]12,Potency,[3],"inconclusive: 0.944 µM [rising, partial curve, poor fit]"
same,Potency,[7],"inconclusive: 12 µM [activator, full curve, poor fit]"
Fc1c(F)c(F)c(Br)c(F)c1F,Potency,[10],inactive
Cc1ccccc1N=O,Potency,[10],inactive
C=CCOc1c(Br)cc(C(C)(C)c2cc(Br)c(OCC=C)c(Br)c2)cc1Br,Potency,[4]; [18],inactive
Oc1ccc2c3c1O[C@H]1[C@@H](O)C=C[C@H]4[C@H](C2)NCC[C@@]341,Potency,[3],"inconclusive: 1.88 µM [rising, full curve, poor fit]"
same,Potency,[8],"inconclusive: 12 µM [rising, full curve]"
CC(=O)O[C@H]1CC[C@H]2[C@@H]3CCC4=CC(=O)CCC4=C3C=C[C@]12C,Potency,[4]; [18],active: 2.68 µM
same,Potency,[2],"inconclusive: 33.5 µM [cytotoxic, single point]"
same,Potency,[11],"inconclusive: 33.5 µM [cytotoxic, single point]"
same,Potency,[12],inactive
same,"activity change, negative = inhibition",[13],inconclusive: 9.76%
same,Potency,[14],"inconclusive: 0.0054 µM [activator, full curve, poor fit]"
same,Potency,[15],inactive
same,"activity, negative = inhibition",[7],inconclusive: 26.1%
same,Potency,[8],"inconclusive: 6.01 µM [rising, full curve, poor fit]"
same,Potency,[16],active: 2.68 µM [inconclusive]
same,Potency,[17],active: 0.531 µM
CN[C@]1(c2ccccc2Cl)CCCCC1=O,Potency,[8],"inconclusive: 0.151 µM [rising, full curve, poor fit]"
CN(C)CCCCCCN(C)C,Potency,[12],inactive
same,Potency,[3],inactive
c1ccc(C2(c3ccccc3)CC2C2=NCCN2)cc1 (centres undefined),Potency,[15],"inconclusive: 29.8 µM [inhibitor, partial curve, poor fit]"
same,Potency,[17],active: 0.0007 µM
Cc1cccc(C(C)c2cnc[nH]2)c1C (centres undefined),"activity change, negative = inhibition",[4]; [18],inconclusive: 22.5%
same,Potency,[6],"inconclusive: 26.6 µM [cytotoxic, single point]"
same,Potency,[2],inconclusive: 29.8 µM [cytotoxic]
same,Potency,[11],"inconclusive: 33.5 µM [cytotoxic, single point]"
